# PMC12136788
# The other results are listed elsewhere or left out.
# T1: UNK ZnF1-3 (human, UniProt Q9C0B0 31-174)
# T1 sequence: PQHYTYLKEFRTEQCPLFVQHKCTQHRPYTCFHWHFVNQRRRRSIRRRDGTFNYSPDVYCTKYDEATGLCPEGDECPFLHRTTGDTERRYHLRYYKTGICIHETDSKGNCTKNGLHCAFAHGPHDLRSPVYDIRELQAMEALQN
# B1: chr11:18503389:18503390:-_ENSG00000074319_ENST00000251968|hu_mus|FALSE|FALSE (ssRNA)
# RNA: GGGAGUUCUACAGUCCGACGAUCAUUUUCCAUUUUCUCCAGAGCAGAACUUAGUUCUUCAUCCUUCUUUUUCAAAAGUUCUAUGUUUUUAUCAACUUCAGCUACUUCUUGAUCUAAGCGGGUGACCAUCUCUUCCAGUUUCUGCAACAGAGGAUUGAGCAUCA
# B2: 111852333_111852587_630_CDS_ENSMUSG00000018707_ENSMUST00000018851|mouse|control|control (ssRNA)
# RNA: GGGAGUUCUACAGUCCGACGAUCUGAAGGAGCCAUCUUAUCACCAUCCCUGUCUGCUUUGCCAGACUCUCUGAUGUAGGACUUAAAGAAAGGAGCCACUGCAUUGCUGAUGAAAGAGUGCAGUGUCUCAUACGGCGAGUCUUCCAACAGAGGAUUGAGCAUCA
# B3: chr3:148802587:148802588:-_ENSG00000071794_ENST00000310053|hu_mus|hu_hu_hu_mus_False|8_28 (ssRNA)
# RNA: GGGAGUUCUACAGUCCGACGAUCUCCAACAACUUGUCCUCUCAUAGUUCCAAAUAAAACCAAAUCUUGCUCUUCAUCACUCGUUAGGAAGUCAUCUGGAGGAAUAACAUCUUGGAAUUCAAAAUGUGGAAAGAAAGUUGAGUACAACAGAGGAUUGAGCAUCA
# B4: 121248624_121341702_532_3pUTR_ENSG00000157837_ENST00000353487|human|control|control (ssRNA)
# RNA: GGGAGUUCUACAGUCCGACGAUCAGACUAUAAGAAGAAUGGAAAUCAGAAAUGUAGACACUUGACUGGAAUCCACCAGGGAAUAGGCCCACGAGUAGGUCUGCUCCGCCAUGGCGCUGCCUCUCGUGGGCUCCGCUGCAGGCUCAACAGAGGAUUGAGCAUCA
# B5: chr3:108421708:108421709:+_ENSMUSG00000040389_ENSMUST00000051145|mus_mus|motif|central (ssRNA)
# RNA: GGGAGUUCUACAGUCCGACGAUCGCCAAGAAGGACUUCACUUUCUGUAAUUUCUUCACCAGUUGCUUUACUCUGACAAAAUUCGGCGCAGCAUUCAUAAAGUAGGCCCUUCAUUACGAGCUGGAAUAAGCGAUUGUUACUUGCCAACAGAGGAUUGAGCAUCA
# B6: chr16:57198444:57198445:-_ENSMUSG00000022749_ENSMUST00000023431|mus_hu|motif|central (ssRNA)
# RNA: GGGAGUUCUACAGUCCGACGAUCCCUAAAAGAAGCCGGUGUUUUGCUGCAAUAAUACUGAGCCAGAGAGAAAAGGUCUUCGGUAUCUUCUAUAUUCAGACUGGAUGGAGUAUUUUCCAAGAACUUGAUAACUUCUUCUUUGCUCAACAGAGGAUUGAGCAUCA
# B7: chr16:94664741:94664742:+_ENSMUSG00000040785_ENSMUST00000117648|mus_hu|mus_mus_mus_hu_False|8_78 (ssRNA)
# RNA: GGGAGUUCUACAGUCCGACGAUCUGGUACUGAUCUUGGUAGCUGAUAUUCAGGAGAAAUGUUGGCCAAGGGUGUAUAUAUGCUGGUGUACUGGGGCAAACCUGGUAACACGUUUAUGUAUGCUGGCCGCUGGGUGAUGAUAUCCAACAGAGGAUUGAGCAUCA
# B8: chr15:3987131:3987132:+_ENSMUSG00000022186_ENSMUST00000110690|mus_mus|FALSE|FALSE (ssRNA)
# RNA: GGGAGUUCUACAGUCCGACGAUCCCCUGCAUUGUUGCUGACUGCAGUUAGAUCUUUUACUCCAGUCUUCAGUAAAGCUCCUAUAAGAUUCUCUGGAAUACCACACAGCCCAAAACCACCAACCAGCAAGGUUGCACCAUUAGGCAACAGAGGAUUGAGCAUCA
# B9: 74801827_74806942_828_CDS_ENSG00000113163_ENST00000380494|human|control|control (ssRNA)
# RNA: GGGAGUUCUACAGUCCGACGAUCACAGAUGGAUCCUCUGCAGCCAUACUCUGUUUCAUCUUCAGAUUUGUAGUAACUCAGAGCAUUAUUUUUCAAAACUACCCAACGAUCCUGCCACCCAUGAAUGUAGUUUGUCCACUUACUCAACAGAGGAUUGAGCAUCA
# B10: chr19:16212804:16212805:+_ENSG00000167460_ENST00000300933|hu_mus|hu_hu_hu_mus_False|48_68 (ssRNA)
# RNA: GGGAGUUCUACAGUCCGACGAUCAACAAUUCUGGAGUGAAGGAAAGAUGUAACAUGGAACAGCAUUCCAUCUAUUACAGAAGGCACGUGGGUAAUUAUGAUCACCCCAGCAUUCUCGCUUGGAAUGCUUAAAGACAAUCUGUUCAACAGAGGAUUGAGCAUCA
# B11: chr1:168318718:168318719:+_ENSMUSG00000026563_ENSMUST00000027846|mus_mus|FALSE|FALSE (ssRNA)
# RNA: GGGAGUUCUACAGUCCGACGAUCCUGGGGCUCCUUUGCCACGAACUGCUGAGCUCCAGAGAGGGGGUUCUGAGGCUGGAACCUAUGAUCAAAUUUUUGACGAACAGAAGAAAGCUUUUUCUUGCCCUUGGGUUUUCCAGGCUUCAACAGAGGAUUGAGCAUCA
# B12: chrX:140365796:140365797:-_ENSMUSG00000031285_ENSMUST00000033642|mus_mus|mus_mus_mus_hu_False|98_98 (ssRNA)
# RNA: GGGAGUUCUACAGUCCGACGAUCCUUCUCAUUACUCAAUGCCUGCAAGGUUCUGGUUCGGUAGAAGCUACAGUGGGCGCUGUGAGUGGGGCUAGGCAACCCAUUCAUCCGGGAGCCUCGCAUGUUCCUGGAUGUCUUAUCUCUCAACAGAGGAUUGAGCAUCA
# B13: chr13:24895032:24895033:+_ENSMUSG00000019132_ENSMUST00000019276|mus_hu|FALSE|FALSE (ssRNA)
# RNA: GGGAGUUCUACAGUCCGACGAUCAUAUUAGCAGACUGUCAUAUUACAGGGUCAAGAAACAAAAGCUGCUGUCCAGUCAUGUUUGGACAAUAACGUUUGGGGUCAGACGGGAAAAAGGGAGGAAAGAAAGGAAAGAAAGAGGAGCAACAGAGGAUUGAGCAUCA
# B14: chr14:76904430:76904431:+_ENSMUSG00000022010_ENSMUST00000022587|mus_mus|mus_mus_mus_hu_True|28_48 (ssRNA)
# RNA: GGGAGUUCUACAGUCCGACGAUCUGCAGCCAAAAACACCCUCGUGGAAAAAAAGAGGGAACACCAGCAGCCUUGUAUAAGCUAGAUAAAACCGCCUGGCUUUCCGCAGCUCAGGGCGAAACAGAAAACGGCAGCCCUAAUUUACAACAGAGGAUUGAGCAUCA
# B15: chr2:18084439:18084440:+_ENSMUSG00000026743_ENSMUST00000114669|mus_mus|motif|central (ssRNA)
# RNA: GGGAGUUCUACAGUCCGACGAUCUGAGCAGCGUAGGAGAUUUCUGAAGACUAGAGCUUGUUACACUUCCUGCAGCUGAUGCGGCGGACGAUGUUGGUGAAGCAGAAGAAACUGAGAGGUGAGAAACAUUUUCUUGAUUUUUGUCAACAGAGGAUUGAGCAUCA
# B16: chr10:127876205:127876206:+_ENSMUSG00000025373_ENSMUST00000096386|mus_hu|FALSE|FALSE (ssRNA)
# RNA: GGGAGUUCUACAGUCCGACGAUCUCUAUGGAACAAUUAUGGCCUGUGCCACAAGAGGCAGUGCCAACCAUAUUUUAGCAAAAGCUAGGAGUAGCUUCUUGCUAAACACAUCAACCCCCAACAGAUUAACCCCUACCCUAAACCCAACAGAGGAUUGAGCAUCA
# B17: chr5:145543945:145543946:-_ENSG00000133706_ENST00000545646|hu_hu|hu_hu_hu_mus_True|8_68 (ssRNA)
# RNA: GGGAGUUCUACAGUCCGACGAUCCUGAACGGCCAGUGGUGGGAAAUAAUCAAGCCAGUGCUCUGCUUCAGAAAAUUUCACUAUGUCGUCAUCAGAGAGCCCAAGGGAUUUCAUAAUGUCCCACUGGUAUUUAGAAGAUCCUGCCAACAGAGGAUUGAGCAUCA
# B18: chr13:113737515:113737516:+_ENSMUSG00000042426_ENSMUST00000038574|mus_mus|motif|central (ssRNA)
# RNA: GGGAGUUCUACAGUCCGACGAUCAGAAUUCCUUCCUCCAGGGCCACUCUCACAGCCCAGCUCCUCGCACACCCUGGUGGCGGAGCUCACCGCCGAGAUUCUUCGGGGCUGGGUGCAGACUAUGUUACACUUCCUGGCUCCACACAACAGAGGAUUGAGCAUCA
# B19: chr3:112251601:112251602:-_ENSG00000144848_ENST00000283290|hu_mus|motif|central (ssRNA)
# RNA: GGGAGUUCUACAGUCCGACGAUCAGGAUAGACUCUAUAGCCUCUCCACUACAUUGUGAAGUGUCUUGUGUAGUCAUAUUCGGUUGUUGGAAUGACAGCUUGAACAAAUUUCAAAAAAAUUAAAAGAUACAUAUGAACACCAAGCAACAGAGGAUUGAGCAUCA
# B20: chrX:71549400:71549401:+_ENSMUSG00000019087_ENSMUST00000019231|mus_hu|mus_mus_mus_hu_False|88_108 (ssRNA)
# RNA: GGGAGUUCUACAGUCCGACGAUCGCAAGGAAGAGGAGGAAGCUCUUCAUCCACUGUCGCUGCAGGGUGGGAAAGCAACAACACGGACACCGUCCCACCCUCAACCCCCCCACUGGCACAGGGUCACACAAUCUGGGUCAAAGACAACAGAGGAUUGAGCAUCA
# B21: 46099167_46104026_2383_CDS_ENSG00000136152_ENST00000349995|human|control|control (ssRNA)
# RNA: GGGAGUUCUACAGUCCGACGAUCGGUAUCUUUAUUGGAUAGGUACAAGGACAUACUUCUCAAUGUCACAGGCAGCUUUGUUUUUAUUGUCUUAUAUGCAGUUGCCGCAAGGUCAUUGACCUUUGCUGGUUGUGCCCAAGGCUGCAACAGAGGAUUGAGCAUCA
# B22: chr7:65705475:65705476:+_ENSG00000169902_ENST00000304842|hu_hu|motif|central (ssRNA)
# RNA: GGGAGUUCUACAGUCCGACGAUCUCUAUCCGGUGAUGGCAUUCCAUGGCAUGCUGGCCCAGGUAAAACACAGUCACAGAACGGAUCACCAGACAUGCCAAUAGUAAGUUCUGCUUCAGCUUUCCAACCAUCUUGAUGUGGUUACAACAGAGGAUUGAGCAUCA
# Target: T1, UNK ZnF1-3
# Experiment: nsRBNS (natural sequence RNA bind-n-seq); RBNS binding buffer (assumed for nsRBNS): 25 mM Tris pH 7.5, 150 mM KCl, 3 mM MgCl2, 0.01% Triton X-100, 500 ug/ml BSA, 20 U/ml SUPERase-In, 4 C; UNK is unkempt and MSI1 is Musashi-1; names of the RNAs are library labels; protein concentration not given here; high values mean tight binding
row,Binder,binding signal
1,B1,0.439 enrichment R
2,B2,0.59 enrichment R
3,B3,1.55 enrichment R
4,B4,1.19 enrichment R
5,B5,0.858 enrichment R
6,B6,1.18 enrichment R
7,B7,0.854 enrichment R
8,B8,0.988 enrichment R
9,B9,1.32 enrichment R
10,B10,0.721 enrichment R
11,B11,1.34 enrichment R
12,B12,0.768 enrichment R
13,B13,1.77 enrichment R
14,B14,1.62 enrichment R
15,B15,1.31 enrichment R
16,B16,1.1 enrichment R
17,B17,1.29 enrichment R
18,B18,0.721 enrichment R
19,B19,1.77 enrichment R
20,B20,1.37 enrichment R
21,B21,0.713 enrichment R
22,B22,0.297 enrichment R
